Source: PubChem BioAssay AID504339 (National Center for Advancing Translational Sciences (NCATS), 2011)
In all, about 390,000 compounds went through this assay and about 17,000 (4.4%) were called active. This list was built around the results that the source calls inconclusive (neither active nor inactive); the mix of calls is not that of the screen. The call rests on the fitted dose curve; in most records, active means well fitted inhibition curve with a large enough effect; inconclusive means small, poorly fitted or top-dose-only effect; inactive means no such curve, though single readings can be large or run the other way. Potencies of inconclusive entries are doubtful fits and often do not repeat.

What follows are molecules tested against Lysine-specific demethylase 4A (Homo sapiens) (UniProt O75164) (assay: qHTS Assay for Inhibitors of JMJD2A-Tudor Domain). Conditions: AlphaScreen JMJD2A-Tudor / H3K4me3 peptide binding; activity change, negative = inhibition: at 114 µM (top of the series).
Sequence of UniProt O75164 (O75164 whole entry, looked up, the tested form may be a part): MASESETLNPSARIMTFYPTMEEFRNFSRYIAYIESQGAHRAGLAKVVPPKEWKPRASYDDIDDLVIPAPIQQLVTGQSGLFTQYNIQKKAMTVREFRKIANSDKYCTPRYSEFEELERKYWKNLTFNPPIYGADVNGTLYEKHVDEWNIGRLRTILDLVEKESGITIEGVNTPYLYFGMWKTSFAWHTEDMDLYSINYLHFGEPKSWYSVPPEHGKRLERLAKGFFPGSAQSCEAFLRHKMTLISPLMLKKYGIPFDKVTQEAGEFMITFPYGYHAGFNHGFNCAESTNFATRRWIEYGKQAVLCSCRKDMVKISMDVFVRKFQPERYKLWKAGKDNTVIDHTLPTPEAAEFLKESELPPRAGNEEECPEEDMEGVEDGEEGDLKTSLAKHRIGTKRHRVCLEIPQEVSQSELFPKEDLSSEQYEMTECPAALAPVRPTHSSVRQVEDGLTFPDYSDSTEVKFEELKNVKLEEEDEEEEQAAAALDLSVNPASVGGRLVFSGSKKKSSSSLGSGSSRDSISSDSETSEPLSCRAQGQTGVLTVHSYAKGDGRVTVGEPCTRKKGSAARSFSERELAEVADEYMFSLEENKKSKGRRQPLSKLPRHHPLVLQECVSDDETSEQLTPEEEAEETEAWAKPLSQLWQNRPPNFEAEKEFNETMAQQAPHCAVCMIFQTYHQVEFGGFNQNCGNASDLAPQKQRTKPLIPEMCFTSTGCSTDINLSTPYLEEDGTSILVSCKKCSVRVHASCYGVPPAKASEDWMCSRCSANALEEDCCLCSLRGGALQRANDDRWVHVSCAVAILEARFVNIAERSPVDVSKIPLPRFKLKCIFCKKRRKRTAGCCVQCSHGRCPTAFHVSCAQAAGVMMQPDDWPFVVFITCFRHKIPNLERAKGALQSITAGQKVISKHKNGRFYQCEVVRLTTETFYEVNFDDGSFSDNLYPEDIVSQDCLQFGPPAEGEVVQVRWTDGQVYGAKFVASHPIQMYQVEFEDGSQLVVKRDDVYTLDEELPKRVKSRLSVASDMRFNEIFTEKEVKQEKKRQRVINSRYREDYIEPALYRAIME
Further: nearly all actives have a fitted effect of over 50% in size.
On the % scale 0 is the no-effect control and ±100 the full control effect; potency means the concentration at half of the fitted maximal effect; tags describe the fitted curve by direction and shape.

Potency, inconclusive:
Cc1ccc2onc(CC(=O)N(C)c3ccccc3)c2c1 7.08 µM [inhibitor, full curve], CCOc1ccc(NC(=S)N(CCCN2CCCC2)Cc2cccn2Cc2ccc(Cl)cc2)cc1 50.1 µM [inhibitor, partial curve, poor fit], CC(=O)OCC1=C(C(=O)OC(C)(C)C)N2C(=O)[C@@H](NC(=O)Cc3ccccc3)[C@H]2SC1 89.1 µM [inhibitor, partial curve], CC(=O)N/N=C(\N)c1nonc1N 7.94 µM [inhibitor, full curve], O=C1NC(c2ccccn2)Nc2sc3c(c21)CCC3 (stereo unspecified) 89.1 µM [inhibitor, single point], CCOC(=O)c1c(C)oc2c1c1c(c3ccccc32)OCN(Cc2cccnc2)C1 35.5 µM [inhibitor, partial curve], COc1cc(/C=N/n2c(-c3ccc4c(c3)NC(=O)CO4)csc2=Nc2cccc(C)c2)ccc1O 22.4 µM [inhibitor, partial curve], COc1cc(/C=C2\S/C(=N/S(=O)(=O)c3ccccc3)NC2=O)c([N+](=O)[O-])cc1OC 100 µM [inhibitor, partial curve, poor fit], Cc1cccc(C)c1OCC1CNC(=O)O1 (stereo unspecified) 14.1 µM [inhibitor, full curve, poor fit], CC(C)Cc1ccc(CN2CCCC(NC(=O)c3nn(C)c(=O)c4ccccc34)C2)cc1 (stereo unspecified) 44.7 µM [inhibitor, full curve, poor fit], COc1ccc(C(=O)c2sc(Nc3cccc(OC)c3)c(C(=O)Nc3cccc(C)c3C)c2N)cc1 12.6 µM [inhibitor, partial curve], CC(C)CCOc1ccc(C(=O)C[N+]2(C)CCOCC2)cc1 89.1 µM [inhibitor, single point], Cn1cc(SCC(=O)N2CCN(c3ccccc3)CC2)c2ccccc21 50.1 µM [inhibitor, partial curve], O=C(N/N=C/c1cccnc1)c1cc(-c2ccccc2OCc2ccccc2)n[nH]1 56.2 µM [inhibitor, partial curve], CCOC(=O)c1ccc(N2C(=O)c3n[nH]c(-c4cccs4)c3C2c2ccc(C(C)C)cc2)cc1 (stereo unspecified) 8.91 µM [inhibitor, full curve, poor fit], COc1ccc(CC(=O)NCc2ccc3c(c2)CCN3C(=O)c2ccc(Cl)cc2)cc1OC 56.2 µM [inhibitor, partial curve, poor fit], O=C(CSCc1ccc(Cl)cc1)NN=C1CCCC1 35.5 µM [inhibitor, single point], O=C1CSC(=S)N1/N=C/c1ccc2c(c1)OCCO2 63.1 µM [inhibitor, single point], CCCCOc1ccc(Nc2cc(Cl)ccc2C(=O)O)cn1 56.2 µM [inhibitor, partial curve], Cc1ccc(NCc2ccccc2-c2nnc(-c3ccccc3Cl)o2)c(C)c1 12.6 µM [inhibitor, full curve], S=c1[nH]nc2n1CCCN2 28.2 µM [inhibitor, single point], CC1(C)Cc2c(sc(NC(=O)C(=O)N3CCCC3)c2C#N)CO1 63.1 µM [inhibitor, partial curve, poor fit], COc1cccc(/C=N/NC(=O)c2cc3c(OC)cccc3[nH]2)c1O 31.6 µM [inhibitor, single point], CN(C(=O)CSc1nc2c(c(=O)[nH]1)CCCC2)C1CCCCC1 25.1 µM [inhibitor, full curve, poor fit]

Potency, active:
CCCCCC1(C)NC(=S)N(c2ccccc2)N1 (stereo unspecified) 50.1 µM, O=C(Nc1ccc(Br)cc1Cl)c1cnccn1 50.1 µM, COc1cc(C(CCN2CCCCC2)c2c(OC)cc(OC)c3c2OC(=O)CC3c2ccc(N(C)C)cc2)cc(OC)c1OC (stereo unspecified) 39.8 µM, O=C(c1ccccc1)c1cc(Cl)ccc1N1C(=O)C=CC1=O 17.8 µM, CCC(CO)Oc1cc(NCc2ccc(C(C)(C)C)cc2)c2ncn(C(C)C)c2c1 (stereo unspecified) 25.1 µM, COc1ccc(N2CSC3=C(C#N)C(c4cc(OC)ccc4OC)CC(=O)N3C2)c(OC)c1 (stereo unspecified) 22.4 µM, Cc1ccc(S(=O)(=O)N2CCOCC2)cc1NC(=O)CN1CCN(c2ccc(O)cc2)CC1 25.1 µM, O=C(CNC(=O)c1nc[nH]c1C(=O)N1CCNCC1)OCc1ccccc1 50.1 µM, N#Cc1ccccc1CN1C(=O)S/C(=C/c2cccn2-c2cccc(C(=O)O)c2)C1=O 56.2 µM, O=C(Nc1ccc2c(c1)OCO2)c1ccccn1 4.47 µM, COc1ccc(NC(C)C(=O)N/N=C/c2ccccc2OCc2cccc(Br)c2)cc1 (stereo unspecified) 11.2 µM

Activity change, negative = inhibition, inactive:
Cc1nc(C)c(-c2csc(Nc3ccc(S(N)(=O)=O)cc3)n2)s1 -15.4%, Cc1cc(-c2ccc(C)c(S(=O)(=O)N(C)c3ccc(C)c(C)c3)c2)on1 26%, O=C(Cn1cnc2ccccc21)Nc1ccc2c(c1)OCCCO2 -9.74%, O=S(=O)(c1ccccc1)N1CCC2(CC1)CO2 -9.09%, CN(Cc1nc2ccccc2c(=O)[nH]1)C(=O)c1cccc(NC(=O)c2cccs2)c1 -25.7%, Cc1ccc(S(=O)(=O)N2[C@@H](c3ccc(F)cc3)C(C(=O)O)=CC[C@H]2c2cccs2)cc1 -7.19%, COCCNC(=S)N1CCN(Cc2cccc(OC)c2)CC1 2.74%, O=C(NCCc1ccccc1)c1ccc2c(c1)S(=O)(=O)c1cc(Cl)ccc1C2=O -18.1%, O=C([C@@H]1Cc2ccccc2CN1)N1CCN(Cc2ccccc2)CC1 -4.01%, N#CCCN(NC(=O)OCc1ccccc1)C(=O)OCc1ccccc1 5.56%, CNC[C@H]1Oc2c(NC(=O)c3ccc(-c4nccs4)cc3)cccc2C(=O)N([C@@H](C)CO)C[C@@H]1C -23.4%
